# Test results: PubChem BioAssay AID488969 (Vanderbilt High Throughput Screening Facility, 2010)
# Over roughly 110,000 compounds, “z-score” has its median near -0.1; the highest 2% begin near 2. This is one part of the list. The source made the active and inactive calls.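 Rule for the calls: active = z-score in the third read window above 3 or below -3; inactive = the rest.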
# Molecular target: Metabotropic glutamate receptor 8 (Rattus norvegicus) (UniProt P70579)
# Experiment: rat mGluR8 modulators via GIRK flux, primary screen, cell-based, thallium flux, HTS (AID 488969)
# Conditions: HEK293 rat mGluR8, GIRK (G protein-gated inwardly rectifying potassium channel) thallium flux, FluoZin2; at 10 µM; stronger effect = higher value; submaximal glutamate (EC20) added with thallium
# Sequence of UniProt P70579 (P70579 whole entry, looked up): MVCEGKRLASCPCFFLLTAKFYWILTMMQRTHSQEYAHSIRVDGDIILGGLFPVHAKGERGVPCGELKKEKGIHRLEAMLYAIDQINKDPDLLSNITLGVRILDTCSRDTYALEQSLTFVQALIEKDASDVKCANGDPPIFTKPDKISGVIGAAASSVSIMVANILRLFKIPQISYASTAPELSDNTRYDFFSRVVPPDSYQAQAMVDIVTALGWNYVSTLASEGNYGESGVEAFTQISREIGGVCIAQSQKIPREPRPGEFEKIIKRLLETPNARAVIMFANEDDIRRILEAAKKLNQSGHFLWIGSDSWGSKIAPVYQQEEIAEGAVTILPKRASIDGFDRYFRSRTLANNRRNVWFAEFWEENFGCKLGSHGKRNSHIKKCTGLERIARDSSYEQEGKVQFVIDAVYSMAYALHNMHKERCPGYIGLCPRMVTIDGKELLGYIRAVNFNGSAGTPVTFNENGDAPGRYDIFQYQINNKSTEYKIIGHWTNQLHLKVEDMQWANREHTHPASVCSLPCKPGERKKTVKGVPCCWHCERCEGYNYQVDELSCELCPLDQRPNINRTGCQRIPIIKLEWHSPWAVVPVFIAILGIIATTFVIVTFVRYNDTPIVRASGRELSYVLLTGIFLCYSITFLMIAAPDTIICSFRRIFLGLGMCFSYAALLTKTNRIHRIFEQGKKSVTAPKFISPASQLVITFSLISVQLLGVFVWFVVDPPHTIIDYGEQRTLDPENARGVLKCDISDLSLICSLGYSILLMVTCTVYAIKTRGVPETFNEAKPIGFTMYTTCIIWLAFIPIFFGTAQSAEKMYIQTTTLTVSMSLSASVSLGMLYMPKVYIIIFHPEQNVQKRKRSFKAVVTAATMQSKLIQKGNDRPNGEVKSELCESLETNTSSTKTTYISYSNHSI
row,SMILES,z-score
1,CCC1Oc2ccc(C)cc2N(CC(=O)N(Cc2cccnc2)Cc2cccc(F)c2)C1=O (configuration not stated),-0.143
2,O=C1[C@@H]2[C@H](C(=O)N1Cc1cccnc1)[C@H]1C=C[C@@H]2C1,-0.0773
3,Cc1ccc2oc(-c3cccc(NC(=O)Cc4cccs4)c3)nc2c1,0.0421
4,CSCCC(NC(=O)C1CCC(C)CC1)C(=O)O (configuration not stated),0.17
5,O/N=C/c1ccccc1Oc1ccccc1,-0.288
6,CC(NC(=O)Nc1nccs1)(C(F)(F)F)C(F)(F)F,0.592
7,CCOC(=O)c1c(C)n(C)c2ccc(O)c(CN3CCCCC3)c12,0.782
8,COc1ccc(NS(=O)(=O)c2ccc3oc(SC4CCOC4=O)nc3c2)cc1 (configuration not stated),-2.31
9,COCCCn1c(SCC(=O)OC2CCCCC2)nnc1-c1cccs1,0.0234
10,Cc1ccccc1-c1noc(-c2ccc(Cl)cc2)n1,-0.0855
11,CCCCNC(=O)C(Cc1ccccc1)NS(=O)(=O)c1ccc2c(c1)c(=O)n(C)c(=O)n2C (configuration not stated),-0.0593
12,Cc1nc(N)sc1N=Nc1ccc(Br)cc1,-0.153
13,O=C1CC(c2ccc(Cl)c(Cl)c2)CC(O)=C1C=NCCN1CCNCC1 (configuration not stated),-0.194
14,CC(=O)c1c(C)nn(CC(O)COc2ccc3c(c2)CCC3)c1C (configuration not stated),-0.289
15,COC(=O)c1c(N)n(CCCN2CCOCC2)c2nc3ccccc3nc12,-0.011
16,COC(=O)c1cn[nH]c1NC(=S)Nc1ccc(C)cc1Cl,0.195
17,CCN(CC)c1ccc(/C=N/NC(=O)c2c(Cl)c(C)nn2C)cc1,-0.21
18,COc1ccc(CNC(=O)CN(Cc2ccc(Cl)cc2)S(=O)(=O)c2ccccc2)cc1,-0.226
19,Cc1ccc(CNC(=O)CSc2ccc(-c3cccs3)nn2)cc1,0.901
20,Cc1ccccc1C(=O)c1c[nH]c(C(N)=O)c1,-0.324
21,CCOC(=O)CSc1cn2c(n1)CCC2,0.599
22,O=C(Nc1ccon1)c1cc(-c2ccccc2)nc2ccccc12,-1.67
23,Cc1cc(C)c(NC(=O)CS(=O)CC(=O)NCCCc2ccccc2)c(C)c1 (configuration not stated),0.0707

row,SMILES,z-score
1,O=C(Nc1cccc2nsnc12)c1ccc(-c2ccc(Br)cc2)o1,-0.0991
2,Cc1noc(/C=C/N(C)C)c1S(=O)(=O)N1CCCC(C(=O)NC2CCCCC2C)C1 (configuration not stated),1.71
3,O=C(Cn1cnc2ccccc2c1=O)NCCC(=O)N1CCN(c2ccccc2)CC1,0.0185
4,CCCn1c(CCc2ccccc2)nnc1SCC(=O)N1CCOCC1,-0.0332
5,O=C(CCCN1C(=O)CCC1=O)Nc1ccc(Br)cc1F,-0.113
6,CCC(COC(=O)Nc1cccc(C)c1)NC(=O)OCC(C)C (configuration not stated),0.0388
7,O=C(c1ccc(COc2ccccc2[N+](=O)[O-])o1)N1CCCCC1,-1.25
8,CCC(C)(C)NC(=O)C(c1ccccc1F)N(Cc1ccco1)C(=O)c1csnn1 (configuration not stated),-0.468
9,Cc1ccc(OCC(=O)N/N=C/c2c[nH]c3ccccc23)c([N+](=O)[O-])c1,0.0177
10,COCCN(CC(=O)Nc1cccc(C)c1)S(=O)(=O)c1ccc(S(=O)(=O)N2CCCC2)cc1,0.00397
11,CCOC(=O)c1c(NC(=S)Nc2ccc(Cl)cc2)sc(C)c1C,-0.0912
12,CC(C)=N/N=C1/NC(=O)C(CC(=O)Nc2cc(Cl)ccc2C)S1 (configuration not stated),-0.221
13,O=C(CN1c2ccccc2Sc2ccccc21)NNC(=S)Nc1ccc(Cl)cc1Cl,-0.138
14,CCN(CC)CCn1c2ccc(F)cc2c2nc(C)sc21,0.189
15,O=C(N/C(=C/c1cccs1)c1nc2ccccc2[nH]1)c1ccccc1,-0.0894
16,CC12CCC(C(=O)Nc3cccc4ccccc34)(C1Br)C2(C)C (configuration not stated),-0.149
17,Cc1cc(NC(=O)c2cccc(C(=O)Nc3cc(C)on3)n2)no1,-0.219
18,COC(=O)/C(C#N)=C1/C=Cc2ccccc2N1C,0.0446
19,O=C(NCc1cccs1)Nc1ccc(Cl)cc1,0.449
20,Cc1cc(/C=c2/sc3nc4ccccc4n3c2=O)c(C)n1-c1ccccn1,active: 6.08
21,Cc1nnc(NC(=O)CSc2ncnc3scc(-c4ccccc4)c23)s1,0.176
22,CC(C)c1ccc2oc(-c3ccc(NC(=O)c4ncn[nH]4)cc3)nc2c1,0.303
23,COc1ccc(CCNC(=O)CCn2cccc2)cc1OC,-0.462

row,SMILES,z-score
1,CCCCC1S/C(=N/N=C/c2ccc(OC)cc2)N(Cc2ccc(OC)cc2)C1=O (configuration not stated),-0.524
2,Cc1ccc(-n2c(Cc3cccn3C)nnc2SCC(=O)Nc2ccc3c(c2)OCO3)cc1,0.172
3,CC(C)CCn1cnc2c(NCc3ccccc3)ncnc21,2.07
4,Cc1ccc(/C=c2\sc3n(c2=O)CN(c2cccc(Br)c2)CN=3)o1,0.126
5,CCOC(=O)C1CCN(C(=O)Nc2ccc3nccnc3c2)CC1,-0.389
6,O=c1c2c3c(sc2nc2sc(C4CC4)nn12)CCCC3,-0.164
7,Cn1ncc(N=Cc2ccccc2O)c1C(=O)Nc1ccccc1,-0.273
8,Cc1ccc(C(=O)O)cc1N=Cc1cc(Br)cc(Br)c1O,-0.485
9,O=C(Nc1nc(-c2ccccc2)c(C(=O)c2ccccc2)s1)c1ccc(S(=O)(=O)N2CCCC2)cc1,-0.0475
10,Cc1cc(NS(=O)(=O)c2ccc(NC(=O)C(C)Oc3ccc4c(C)cc(=O)oc4c3)cc2)no1 (configuration not stated),-0.145
11,Cc1cc(Oc2ccccc2)nc(SCC(N)=O)n1,0.736
12,Cc1oc2c(c1C(=O)NCc1cc(C(=O)O)co1)CCCC2,-0.0342
13,O=C(NCCN1CCOCC1)c1cc(Sc2cccc(Cl)c2)nc2ccccc12,-0.923
14,Cc1cccc2c(=O)c(C(=O)N3CCCCCC3)c[nH]c12,-0.0936
15,CS(=O)(=O)C1=NSC2=NC(=O)/C(=C\c3ccc(-c4ccccc4)o3)C(=N)N21,-0.142
16,COc1ccc(S(=O)(=O)N(C)C)cc1NCC(=O)Nc1ccc(F)cc1F,-0.182
17,COc1ccc(N=C(C)C2=C(O)c3ccccc3C2=O)cc1,-1.01
18,Cc1c(C)n(C(=O)CN2CCN(c3ccccn3)CC2)c2ccccc12,-0.164
19,Cc1ccc(OCCCn2cc(C#N)c3ccccc32)cc1,0.717
20,O=C(CCN1C(=O)c2ccccc2C1=O)NCCC1=CCCCC1,0.108
21,COc1ccc(Oc2nc(C(F)(F)F)nc3ccccc23)cc1,-0.576
22,CCN(CC1COc2ccccc2O1)S(=O)(=O)c1ccc(C)cc1 (configuration not stated),0.877
23,CN(C)CC/C=C1/c2ccccc2Sc2c(O)cc(Cl)cc21,1.62

row,SMILES,z-score
1,C/C(=N/NC(=O)c1cccc(C)c1)c1c(O)cc(C)oc1=O,0.213
2,NC1=NC(=O)/C(=C/c2cn(Cc3ccccc3)c3ccccc23)S1,0.0563
3,CCOc1c(C)cc(-c2ncccc2O)cc1C,0.108
4,CCn1c(COc2cccc3ccccc23)nnc1SCC(=O)OC1CCCCC1,0.216
5,Cc1cc2c(cc1C)C(c1cccc([N+](=O)[O-])c1)CC(=O)N2 (configuration not stated),0.14
6,Cc1ccc(NC(=O)CN2C(=O)/C(=C\c3cccs3)SC2=S)cc1,-0.912
7,Cc1nc2ccccc2nc1N1CCOCC1,-0.094
8,O=C(Nc1ncccn1)c1cc([N+](=O)[O-])cc([N+](=O)[O-])c1,-0.131
9,CCS(=O)(=O)c1nn2c(N)c(/C=C3/C=CC(=O)C(OC)=C3)c(=O)nc2s1,-0.412
10,CCCCC(=O)NNC(=S)NC(=O)CCC,-0.0201
11,S=c1[nH]nc(-c2ccco2)n1/N=C/c1cccc(Cl)c1Cl,active: 5.73
12,Cc1nnc(-n2ncc(C#N)c2N)c2nn(-c3cccc(Cl)c3)c(C)c12,0.0208
13,O=S(=O)(NCc1ccccn1)c1ccccc1,-0.362
14,O=C(NNC(=O)C1CCN(S(=O)(=O)c2ccc(Cl)cc2)CC1)c1ccc(Cl)cc1,-0.165
15,Cc1ccc(C2CC(c3cccs3)=NN2S(=O)(=O)c2ccc(C)cc2)cc1 (configuration not stated),-0.276
16,CCOC(=O)C1CCN(C(=O)CSc2ccccc2)CC1,-0.375
17,O=C(NCc1ccco1)Nc1ccc2snnc2c1,-0.0412
18,OC(CN=c1sc2ccccc2n1CC(O)COc1ccccc1)COc1ccccc1 (configuration not stated),0.0732
19,Cc1ccc(S(=O)(=O)N(C)CC(=O)NC2CC(C)(C)NC(C)(C)C2)cc1,0.0551
20,CC(=O)Nc1ccc(-c2nn[nH]n2)cc1Cl,1.27
21,Cc1ccc(C2C(=O)N(C3CCC(C)CC3)CC(=O)N2C2CC2)cc1 (configuration not stated),-0.153
22,CC(CN1CCCCC1)OC(=O)c1cc2ccccc2o1 (configuration not stated),-0.467
23,CCCCN1C(=O)/C(=C(/C#N)C(N)=O)c2ccccc21,-0.233

row,SMILES,z-score
1,Cn1cc(/C=N/n2cnc3scc(-c4ccc(Cl)cc4)c3c2=O)c2ccccc21,0.699
2,COc1ccc(S(=O)(=O)N2CCN(C(=O)c3cnc(C)cn3)CC2)cc1,0.314
3,CCOC(=O)c1ccc(NC(=O)NS(=O)(=O)c2ccc(C)cc2)cc1,-0.301
4,Cc1noc(C)c1CSc1nc2sc3c(c2c(=O)n1C)CCCC3,0.514
5,CC(C)(C)c1cc(C(=O)NCc2cccnc2)ccn1,-0.205
6,CCn1c(=O)c2cc(S(=O)(=O)NC3CCCCC3)ccc2n(CC)c1=O,-1.16
7,COc1ccc(C(C)=O)cc1COC(=O)Cn1cnc2ccccc2c1=O,-0.141
8,COc1cc(/C=N/NC(=O)C2C3CCCCC32C)cc(Br)c1O (configuration not stated),-0.151
9,O=C(Cn1nnc(-c2ccc(N3CCOCC3)cc2)n1)OC1CCCCC1,-0.26
10,CSc1nc2cc(Cl)ccc2s1,-0.233
11,CC(=O)Nc1ccccc1-c1nc2ccccc2nc1OCC(=O)c1ccc(Cl)cc1,-0.591
12,CN(C1CCCC1)C1CCN(C(=O)CNC(=O)/C=C/c2ccc(F)cc2)CC1,-0.476
13,COc1ccc(OC(C)C(=O)Nc2cccc([N+](=O)[O-])c2)cc1 (configuration not stated),-0.443
14,CCOc1ccccc1-n1nnnc1SCC(=O)Nc1cc(C)on1,0.428
15,Cc1cccc(-n2c(-c3cccc([N+](=O)[O-])c3)nc3nc4ccccc4nc32)c1,-0.0692
16,COc1ccc(CCNC(=O)CN2C(=O)c3ccccc3C2=O)cc1,-0.172
17,CC1=CC(=C2C(=O)c3ccccc3C2=O)C=C(C)N1C,0.279
18,CCn1c(SCC(N)=O)nnc1-c1cc2c(C)nn(-c3ccccc3)c2s1,0.0169
19,COc1cc(OC)cc(-c2n[nH]c(=S)n2-c2cc(OC)ccc2OC)c1,-0.131
20,N=c1oc2ccccc2cc1C(=O)N/N=C/c1ccccc1,-1.19
